Results published in the antibiotic and cytotoxicity screens of Wong et al. (2023).
The other results are listed elsewhere or left out.

tested on: HSkMC (human skeletal muscle cells); experiment: cytotoxicity call (relative viability < 0.9); settings: 10 µM

Structure (SMILES)	cytotoxicity call
Cc1ccc(C(=O)C(C)CN2CCCCC2)cc1.Cl (stereo not drawn)	inactive
COCCOC(=O)N1C(=O)[C@@]2(c3cc(C#CC4=CCCCC4)ccc31)[C@H](c1ccccc1OCCO)N1[C@H](c3ccccc3)[C@H](c3ccccc3)OC(=O)[C@H]1[C@@H]2C(=O)N1CCCCCCC1	inactive
Cc1ccc(S(=O)(=O)Nc2ccc3c(c2)C(=O)N([C@@H](C)CO)C[C@H](C)[C@H](CN(C)Cc2ccc(C(=O)O)cc2)OCCCC[C@@H](C)O3)cc1	inactive
C#CC1(O)CCC2C3CCC4=CC(=O)CCC4C3CCC21CC (stereo not drawn)	inactive
O=C([C@@H]1[C@@H](CO)[C@@H]2Cn3c(cccc3=O)[C@@H]2N1C(=O)C1CCCC1)N1CCOCC1	inactive
C[C@@H]1CN([C@H](C)CO)C(=O)c2cc(NS(=O)(=O)c3cccs3)ccc2O[C@@H](C)CCCCO[C@@H]1CN(C)C(=O)Cc1ccccc1	inactive
C[C@@H]1CN([C@@H](C)CO)C(=O)c2cc(C#CC3(O)CCCC3)cnc2O[C@@H]1CN(C)C(=O)Cc1ccncc1	inactive
COc1ccc(S(=O)(=O)N(C)C[C@@H]2OCCCC[C@H](C)Oc3ccc(NS(=O)(=O)c4cn(C)cn4)cc3C(=O)N([C@@H](C)CO)C[C@@H]2C)cc1	inactive
C[C@@H]1CN([C@H](C)CO)C(=O)c2cc(NC(=O)Nc3ccc(C(F)(F)F)cc3)ccc2O[C@@H]1CN(C)Cc1ccc(C(F)(F)F)cc1	active
CC(=O)N1CSC[C@H]1C(=O)O	inactive
C[C@@H]1CN([C@@H](C)CO)C(=O)c2cc(NC(=O)c3ccccc3)ccc2O[C@@H](C)CCCCO[C@@H]1CN(C)Cc1ccc(C(=O)O)cc1	inactive
C[C@H](CO)N1C[C@H](C)[C@@H](CN(C)Cc2ccc3c(c2)OCO3)Oc2ccc(NC(=O)Nc3ccc(C(F)(F)F)cc3)cc2CC1=O	active
Cc1noc(C)c1NC(=O)N(C)C[C@H]1Oc2ccc(NC(=O)Cn3cnnn3)cc2CC(=O)N([C@H](C)CO)C[C@H]1C	inactive
C[C@H]1CN([C@@H](C)CO)C(=O)c2cccc(NS(C)(=O)=O)c2O[C@H]1CN(C)C(=O)Nc1ccc(F)cc1	inactive
Cc1ccc(S(=O)(=O)Nc2cccc3c2O[C@H](CN(C)S(=O)(=O)c2ccc(F)cc2)[C@@H](C)CN([C@H](C)CO)C3=O)cc1	inactive
C[C@@H]1CCCCO[C@@H](CN(C)Cc2ccc(C(F)(F)F)cc2)[C@@H](C)CN([C@@H](C)CO)C(=O)c2cc(NC(=O)Nc3cccc4ccccc34)ccc2O1	inactive
CC(CCc1ccc(O)cc1)NCCc1ccc(O)c(O)c1.Cl (stereo not drawn)	inactive
Cc1noc(C)c1S(=O)(=O)N(C)C[C@@H]1Oc2ccc(NS(=O)(=O)c3cn(C)cn3)cc2C(=O)N([C@@H](C)CO)C[C@@H]1C	inactive
C[C@H]1CCCCO[C@H](CN(C)C(=O)Nc2ccc(C(F)(F)F)cc2)[C@@H](C)CN([C@@H](C)CO)C(=O)c2cc(NS(=O)(=O)c3ccccc3)ccc2O1	active
C[C@H]1CCCCO[C@@H](CN(C)S(=O)(=O)c2cccs2)[C@@H](C)CN([C@@H](C)CO)C(=O)c2cc(NC(=O)NC3CCCCC3)ccc2O1	inactive
C[C@H](CO)N1C[C@H](C)[C@@H](CN(C)Cc2ccccc2C(F)(F)F)OCc2ccccc2-c2ccccc2C1=O	inactive
C[C@@H]1CN([C@H](C)CO)C(=O)c2cc(NC(=O)c3ccncc3)ccc2O[C@@H]1CN(C)S(=O)(=O)c1cccs1	inactive
Cc1noc(C)c1NC(=O)Nc1ccc2c(c1)CC(=O)N([C@H](C)CO)C[C@@H](C)[C@H](CN(C)S(C)(=O)=O)O2	inactive
COc1ccc(CN(C)C[C@@H]2OCCCC[C@@H](C)Oc3ccc(NS(=O)(=O)c4ccc(C)cc4)cc3C(=O)N([C@@H](C)CO)C[C@H]2C)cc1	inactive
C[C@@H]1CN([C@H](C)CO)C(=O)CCCn2cc(nn2)CO[C@@H]1CN(C)S(=O)(=O)c1ccc(C#N)cc1	inactive
Cn1cnc(S(=O)(=O)N2C[C@H](O)COC[C@@H]3O[C@H](CC(=O)NC4CCCC4)CC[C@H]32)c1	inactive
C[C@H]1CN([C@@H](C)CO)C(=O)c2cccc(NC(=O)Nc3ccccc3)c2O[C@@H]1CN(C)CC1CCCCC1	inactive
C[C@@H]1CN([C@@H](C)CO)C(=O)c2cc(NS(=O)(=O)c3cccs3)ccc2O[C@@H](C)CCCCO[C@@H]1CN(C)C(=O)Nc1ccccc1	inactive
